Test results as given in the supplement of paper PMC9446081.
Hit rate of the full screen: of about 39,000 compounds, about 220 (0.56%) showed activity. Some of the results follow.
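Note: static incubation at 37 °C against the wild-type strain, values averaged over two biological replicates.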

Each compound was assayed on Escherichia coli K-12 BW25113 (assay: relative growth (OD600 normalised to plate interquartile mean) (fraction); higher = less growth inhibition, active = 0.2 or less). Settings: 50 µM; LB; incubation time: overnight (16-24 h).
With `COc1ccc(COCC23Oc4ccccc4[C@H]([C@H]2CO[Si](C)(C)C(C)(C)C)n2c(c4ccccc4c(-c4ccccc4)c2=O)N3C)cc1` the relative growth was inactive: 1.03. With `CCOC(=O)C1=CC2(CC)CCCN3CCc4c(n1c1ccccc41)C32` (centres undefined) the relative growth was inactive: 1.08. For `C/C=C/c1ccc2c(c1)O[C@H](CN(C)C(=O)c1ccc3c(c1)OCO3)[C@H](C)CN([C@H](C)CO)S2(=O)=O`, the relative growth was inactive: 0.982. In the case of `C[C@@H]1CN([C@@H](C)CO)C(=O)c2cc(NS(C)(=O)=O)ccc2O[C@H]1CN(C)S(=O)(=O)c1ccccc1`, the relative growth is reported as inactive: 1. In the case of `Cc1noc(C)c1NC(=O)N(C)C[C@H]1Oc2ccc(NC(=O)CCN3CCOCC3)cc2CC(=O)N([C@H](C)CO)C[C@@H]1C`, the relative growth is reported as inactive: 1. For `COCC(=O)N1C[C@@H](C)[C@H](OC)CN(C)C(=O)c2cc(NC(=O)Nc3ccccc3)ccc2OC[C@H]1C`, the relative growth was inactive: 1.01. `C[C@H](CO)N1C[C@H](C)[C@@H](CN(C)Cc2ccc(Oc3ccccc3)cc2)Oc2c(NC(=O)Nc3ccc(C(F)(F)F)cc3)cccc2C1=O` was tested, and the relative growth was inactive: 0.795. With `COc1ccc(NC(=O)N(C)C[C@@H]2Oc3ccc(NC(=O)C4CC4)cc3CC(=O)N([C@@H](C)CO)C[C@H]2C)cc1` the relative growth was inactive: 1.01. With `Cl.NC12CC3CC(CC(C3)C1)C2` the relative growth was inactive: 1.12. `O=C(C[C@@H]1CC[C@@H]2[C@H](COC[C@H](O)CN2C(=O)Nc2ccc(C(F)(F)F)cc2)O1)NCCc1ccncc1` was tested, and the relative growth was inactive: 0.988. With `CN(C)c1cc(NC(=O)CNC(C)(C)C)c(O)c2c1C[C@H]1C[C@H]3[C@H](N(C)C)C(=O)[C@@H](C(N)=O)C(=O)[C@@]3(O)C(=O)[C@H]1C2=O` the relative growth was inactive: 1.01. In the case of `COc1cccc(NC(=O)N[C@@H]2CC[C@@H](CC(=O)N3CCOCC3)O[C@@H]2CO)c1`, the relative growth is reported as inactive: 0.989. With `C[C@@H]1CCCCO[C@H](CN(C)Cc2ccc(C(F)(F)F)cc2)[C@@H](C)CN([C@H](C)CO)C(=O)c2cc(NS(=O)(=O)c3ccc(F)cc3)ccc2O1` the relative growth was inactive: 1.03. With `C[C@@H]1CN([C@@H](C)CO)C(=O)c2cc(NC(=O)CCC(F)(F)F)ccc2O[C@@H]1CN(C)Cc1ccc(C(=O)Nc2ccccc2N)cc1` the relative growth was inactive: 0.987. In the case of `COc1ccc(S(=O)(=O)N(C)C[C@@H]2Oc3ccc(NS(=O)(=O)c4cn(C)cn4)cc3CC(=O)N([C@@H](C)CO)C[C@H]2C)cc1`, the relative growth is reported as inactive: 1.02. For `Cc1nnc(N)s1`, the relative growth was inactive: 1.04. In the case of `O=C(C1CC1)N1CCN(c2ncccn2)CC1`, the relative growth is reported as inactive: 0.991. For `C[C@@H]1CCCCO[C@@H](CN(C)S(=O)(=O)c2cn(C)cn2)[C@@H](C)CN([C@H](C)CO)C(=O)c2cc(N(C)C)ccc2O1`, the relative growth was inactive: 1.02. `CC(=O)N(C)C[C@H]1Oc2ncc(C#C[C@@H](C)O)cc2C(=O)N([C@@H](C)CO)C[C@@H]1C` was tested, and the relative growth was inactive: 0.991. `C[C@H]1CN([C@@H](C)CO)C(=O)c2cc(NC(=O)CCCCCC(=O)Nc3ccccc3N)ccc2O[C@@H]1CN(C)S(=O)(=O)c1cn(C)cn1` was tested, and the relative growth was inactive: 1.01. With `C[C@H](c1cccnc1)N(C(=O)Nc1ccccc1)C1CCCCC1` the relative growth was inactive: 0.939. In the case of `COc1ccccc1CNC(=O)C[C@H]1CC[C@@H]2[C@H](COC[C@H](O)CN2C(=O)Nc2ccc(F)cc2)O1`, the relative growth is reported as inactive: 0.952. `C[C@H]1CN([C@@H](C)CO)C(=O)c2cc(C#Cc3cccnc3)cnc2O[C@@H]1CN(C)S(C)(=O)=O` was tested, and the relative growth was inactive: 0.984. For `C[C@H]1CCCCO[C@H](CN(C)C(=O)Nc2ccc(F)cc2)[C@@H](C)CN([C@@H](C)CO)C(=O)c2cc(NC(=O)c3ccccc3)ccc2O1`, the relative growth was inactive: 1.02. For `C[C@@H]1CCCCO[C@H](CN(C)Cc2ccc3c(c2)OCO3)[C@@H](C)CN([C@H](C)CO)C(=O)c2cc(NC(=O)Nc3ccccc3)ccc2O1`, the relative growth was inactive: 1.01. `C[C@@H]1CN(CC(=O)N2CC(C)(C)c3nc(CO)c(Cc4ccc(F)cc4)cc32)[C@@H](CN2CCOC[C@H]2C)CN1` was tested, and the relative growth was inactive: 1. In the case of `COc1cccc(S(=O)(=O)N[C@@H]2C=C[C@H](CC(=O)NC3CCC3)O[C@@H]2CO)c1`, the relative growth is reported as inactive: 0.866. With `COc1ccc([Si](C)(C)[C@H]2[C@H](CCn3cc([C@H](O)c4ccccc4)nn3)O[C@@]3(C(=O)N(Cc4ccc(N5CCOC5=O)cc4)c4ccccc43)[C@@H]2C)cc1` the relative growth was inactive: 1. For `C[C@@H]1CN([C@@H](C)CO)C(=O)c2cc(NC(=O)Nc3ccccc3)ccc2O[C@H]1CN(C)S(=O)(=O)c1cn(C)cn1`, the relative growth was inactive: 0.971. `CCCNC(=O)N[C@@H]1CC[C@@H](CC(=O)N2CCN(C)CC2)O[C@H]1CO` was tested, and the relative growth was inactive: 0.977. With `C[C@@H]1CN([C@H](C)CO)C(=O)Cc2cc(NC(=O)Nc3cccc4ccccc34)ccc2O[C@@H]1CN(C)Cc1ccc(C(=O)Nc2ccccc2N)cc1` the relative growth was inactive: 1.02. In the case of `Cc1c(N)nc([C@H](CC(N)=O)NC[C@H](N)C(N)=O)nc1C(=O)N[C@H](C(=O)N[C@H](C)[C@@H](O)[C@H](C)C(=O)N[C@H](C(=O)NCCc1nc(-c2nc(C(=O)NCCCNCCCCN)cs2)cs1)[C@@H](C)O)[C@@H](O[C@@H]1O[C@@H](CO)[C@@H](O)[C@H](O)[C@@H]1O[C@@H]1O[C@H](CO)[C@@H](O)[C@H](OC(N)=O)[C@@H]1O)c1c[nH]cn1`, the relative growth is reported as active: 0.0715. With `C[C@@H]1CCCCO[C@@H](CN(C)C(=O)Cc2ccccc2)[C@H](C)CN([C@@H](C)CO)C(=O)c2cc(NC(=O)Nc3ccc(C(F)(F)F)cc3)ccc2O1` the relative growth was inactive: 1.02. For `C[C@@H]1CN([C@@H](C)CO)C(=O)c2cc(-c3cccc(C#N)c3)cnc2O[C@H]1CN(C)C(=O)c1cnccn1`, the relative growth was inactive: 1.02. In the case of `O=C(C[C@@H]1C[C@@H]2c3cc(NS(=O)(=O)c4ccc(F)cc4)ccc3O[C@@H]2[C@H](CO)O1)NCC(F)(F)F`, the relative growth is reported as inactive: 1.01. With `NNC(=O)CCCCCC(=O)NO` the relative growth was inactive: 1.04. With `O=c1[nH]ncc2ccccc12` the relative growth was inactive: 0.998. For `COc1ccc2c3c(n(c2c1)C)[C@@H](CO)N(C[C@]13CCN(CC1)C(=O)c1ccncc1)C(=O)c1cnccn1`, the relative growth was inactive: 0.966. In the case of `Cc1noc(C)c1NC(=O)N(C)C[C@H]1Oc2ccc(NS(=O)(=O)c3c(C)noc3C)cc2C(=O)N([C@@H](C)CO)C[C@H]1C`, the relative growth is reported as inactive: 1.01. In the case of `CCS(=O)(=O)N1CC[C@]2(CC1)CN([C@@H](CO)c1[nH]c3cc(ccc3c12)OC)S(=O)(=O)c1cn(cn1)C`, the relative growth is reported as inactive: 1.03. In the case of `Cc1ccc(S(=O)(=O)N(C)C[C@H]2OCCCC[C@H](C)Oc3ccc(NC(=O)Nc4ccccc4)cc3C(=O)N([C@H](C)CO)C[C@@H]2C)cc1`, the relative growth is reported as inactive: 1.07. For `CNc1nc(OCC#N)nc(N2CCCCC2)n1`, the relative growth was inactive: 1.02. For `CCc1nc2ccc(C(=O)NC3CCN(Cc4ccccc4)CC3)cn2c1N(C)Cc1cc2ccccc2s1`, the relative growth was inactive: 0.99. For `COc1cccc(S(=O)(=O)N(C)C[C@@H]2Oc3cc(C4=CCCC4)ccc3S(=O)(=O)N([C@H](C)CO)C[C@H]2C)c1`, the relative growth was inactive: 1.04. For `C[C@H](CO)N1C[C@H](C)[C@H](CN(C)S(=O)(=O)c2ccccc2)OCCCC[C@H](C)Oc2ccc(NS(C)(=O)=O)cc2C1=O`, the relative growth was inactive: 1.01. For `CCCCC/C=C\C/C=C\CCCCCCCCCC(=O)O`, the relative growth was inactive: 0.989. With `C[C@H]1O[C@@H](O[C@H]2[C@@H](O)[C@@H](O)[C@@H](O[C@H]3CC[C@]4(C)[C@H]5CC=C6[C@H]7CC(C)(C)[C@H]8C[C@]7(C(=O)O8)[C@@H](O)C[C@]6(C)[C@@]5(C)CC[C@H]4C3(C)C)O[C@@H]2CO)[C@@H](O)[C@@H](O[C@H]2OC[C@@H](O)[C@@H](O)[C@@H]2O)[C@@H]1O` the relative growth was inactive: 1. In the case of `C[C@@H]1CCCCO[C@H](CN(C)Cc2ccc(Cl)c(Cl)c2)[C@@H](C)CN([C@@H](C)CO)C(=O)c2cc(NS(C)(=O)=O)ccc2O1`, the relative growth is reported as inactive: 0.996. In the case of `C[C@H](CO)N1C[C@H](C)[C@H](CN(C)Cc2ccc(C(=O)Nc3ccccc3N)cc2)Oc2c(NC(=O)c3nc4ccccc4s3)cccc2C1=O`, the relative growth is reported as inactive: 1.03. With `C=c1cc(C)ccc1=C1NN=C(NC(=O)CC)O1` the relative growth was inactive: 0.989. For `CO[C@H]1CN(C)C(=O)c2cc(NS(=O)(=O)c3cn(C)cn3)ccc2OC[C@H](C)N(Cc2cccc(F)c2)C[C@H]1C`, the relative growth was inactive: 0.984. In the case of `NCCONC(=O)[C@@H]1CC[C@@H]2CN1C(=O)N2OS(=O)(=O)O`, the relative growth is reported as active: 0.0923. With `COc1ccc(CN2C[C@H](C)[C@@H](OC)CN(C)C(=O)c3cc(NC(=O)c4nc5ccccc5s4)ccc3OC[C@H]2C)cc1` the relative growth was inactive: 1.01. `O=C(C[C@@H]1C[C@@H]2c3cc(NS(=O)(=O)c4ccc(F)cc4)ccc3O[C@@H]2[C@H](CO)O1)NCc1cccnc1` was tested, and the relative growth was inactive: 1.01. With `C[C@H]1CN([C@@H](C)CO)C(=O)c2cc(C#Cc3ccccn3)cnc2O[C@H]1CN(C)C(=O)c1cnccn1` the relative growth was inactive: 1. With `COCC(=O)N1C[C@H](C)[C@H](OC)CN(C)C(=O)c2ccc(NC(=O)c3ccc(F)cc3)cc2OC[C@@H]1C` the relative growth was inactive: 0.986. In the case of `C[C@H](CO)N1C[C@H](C)[C@@H](CN(C)S(=O)(=O)c2ccc(F)cc2)Oc2ncc(-c3cccc(C(=O)N(C)C)c3)cc2C1=O`, the relative growth is reported as inactive: 0.967. In the case of `C[C@H]1CN([C@@H](C)CO)C(=O)Cc2cc(NS(C)(=O)=O)ccc2O[C@@H]1CN(C)C(=O)Nc1ccc(C(F)(F)F)cc1`, the relative growth is reported as inactive: 0.952. In the case of `CN(C)CC(=O)N[C@H]1C=C[C@@H](CC(=O)NCCN2CCCCC2)O[C@@H]1CO`, the relative growth is reported as inactive: 0.986.
